PubChem BioAssay AID588855 (National Center for Advancing Translational Sciences (NCATS), 2011)
Among all 410,000 compounds or so, about 5,000 (1.2%) were called active. Inconclusive means that the source gave no clear call. Such entries were picked first, then a sample of the others. Calls come from the whole dose curve; as a rule, active = well fitted inhibition curve with a large enough effect; inconclusive = small, poorly fitted or top-dose-only effect; inactive = no such curve, though single readings can be large or run the other way. Where the call is inconclusive, the potency comes from a doubtful curve fit.

experiment: qHTS for Inhibitors of TGF-b; details: HepG2 CAGA-GFP TGF-b/SMAD3 reporter, GFP fluorescence, 18 h, TGF-beta stimulated, 500 pg/mL final; series mostly up to 46.1 µM; note: nearly all actives have a fitted effect of over 65% in size
In short: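 Using HEPG2 CAGA-GFP reporter cells at 1000 cells/well, we pinned test compounds, stimulated with recombinant TGF-beta (500 pg/mL final) and measured total well GFP after 18 h.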
Potency is the fitted concentration of half-maximal effect; tags give direction and shape of the fitted curve.

Row | SMILES | Potency
1 | Cc1ccc(Nc2nc(Oc3ccc(=O)[nH]n3)nc(N(C)C)n2)cc1 | inconclusive: 6.31 µM [inhibitor, single point]
2 | CCCCN(C(=O)C1CCCC1)c1c(N)n(Cc2ccccc2)c(=O)[nH]c1=O | inactive
3 | CCOc1ccc(CCNC(=O)C2CCN(C(=O)c3cc4sccc4n3CC)CC2)cc1OCC | inconclusive: 31.6 µM [inhibitor, single point]
4 | CCCC1NC(=O)c2cccnc2-n2c1nc1cc(F)c(F)cc1c2=O (configuration not stated) | inactive
5 | O=C(CCCN1C(=O)/C(=C/c2ccccc2)SC1=S)Nc1cccc(O)c1 | active: 14.1 µM
6 | Cc1ccc(OCCN2C(=O)c3ccccc3C2=O)c(C)c1 | inconclusive: 12.6 µM [inhibitor, partial curve, poor fit]
7 | O=C1C(c2ccc(F)cc2)N(Cc2ccc3c(c2)OCO3)C(=O)CN1C1CCCCC1 (configuration not stated) | inconclusive: 25.1 µM [inhibitor, single point]
8 | Cc1ccc(NC(=O)c2ccc(CN3C(=O)CCn4nc(C)cc43)cc2)c(Cl)c1 | inconclusive: 35.5 µM [inhibitor, single point]
9 | CCCn1c(=O)c2sccc2n2c(CCCC(=O)Nc3ccc(Oc4ccc(Cl)cc4)cc3)nnc12 | inconclusive: 11.2 µM [inhibitor, partial curve, poor fit]
10 | Cc1cccc(NS(=O)(=O)c2c(C(=O)N3CCCC3)c(C)n(C)c2C)c1 | inactive
11 | COc1ccc(NC(=O)CC2C(=O)N(C)C(=S)N2CCc2ccc(F)cc2)cc1 (configuration not stated) | inconclusive: 15.8 µM [inhibitor, single point]
12 | NC(=S)N/N=C\c1c2ccccc2cc2ccccc12 | inactive
13 | CCCCCCCn1c2c(c(=N)c3ccccc31)CCC2 | inconclusive: 2.24 µM [inhibitor, partial curve]
14 | CCN(CCO)c1ccc(Nc2cc(-c3ccc(-c4ccccc4)cc3)ncn2)cc1 | inconclusive: 35.5 µM [inhibitor, partial curve, poor fit]
15 | CCOC(=O)c1[nH]c2ccc(OC)cc2c1NC(=S)N1CCN(c2ccccc2OC)CC1 | inconclusive: 35.5 µM [inhibitor, single point]
16 | CCCc1cnc(NCCNCC(O)COc2ccc(Cl)c(Cl)c2)nc1 (configuration not stated) | inconclusive: 14.1 µM [inhibitor, single point]
17 | Cc1ccc(-c2csc(NC(=O)c3c(C)noc3C)n2)cc1C | inactive
18 | Cn1c(CCN2CCN(c3ccc(F)cc3)CC2)nc2cc(NC(=O)c3ccco3)ccc21 | inconclusive: 7.94 µM [inhibitor, partial curve, poor fit]
19 | COc1ccc(Cl)cc1-n1c(=S)sc2c(=O)n(-c3ccc(F)cc3)c(SCC(=O)O)nc21 | inconclusive: 2.51 µM [inhibitor, partial curve, poor fit]
20 | CCCCOc1ccc(S(=O)(=O)Nc2ccc(-c3ccc(N4CCC(C)CC4)nn3)cc2)cc1 | inconclusive: 3.98 µM [inhibitor, single point]
21 | CSCC[C@H](NC(=O)COc1ccc(Cl)cc1Cl)c1nc2ccccc2[nH]1 | inconclusive: 22.4 µM [inhibitor, single point]
22 | COc1ccc(C(=O)N2CCn3c(C)ccc3C2C)cc1 (configuration not stated) | inconclusive: 15.8 µM [inhibitor, single point]
23 | CC[C@]12c3[nH]c4ccccc4c3CCN1C(=O)C(CC(=O)NCc1cccc(C(F)(F)F)c1)C[C@@H]2C(=O)N1CCN(C(=O)c2ccco2)CC1 (some centres not stated) | inactive

Row | SMILES | Potency
24 | COc1cccc(N2CCN(C(=O)c3cccn3-c3nnc(N4CCCC4)s3)CC2)c1 | inactive
25 | NC(=O)c1ccccc1NC(=O)C(c1ccccc1)c1ccccc1 | inactive
26 | Cn1c(-c2ccc(Br)cc2)cnc1NCc1ccc(C#N)cc1 | inconclusive: 14.1 µM [inhibitor, single point]
27 | COCCCNC(=O)c1ccc(-n2c(-c3ccccc3)cc3c2CCC(C)C3)cc1 (configuration not stated) | inactive
28 | COc1ccc(CN(C)CC(=O)Nc2cccc(S(N)(=O)=O)c2)c(OC)c1OC | inactive
29 | COc1cc(N)ccc1Nc1c2ccccc2nc2ccccc12 | inconclusive: 31.6 µM [inhibitor, single point]
30 | O=S(=O)(c1cccs1)N1CCN(CCOc2ccc(Cl)cc2)CC1 | inconclusive: 4.47 µM [inhibitor, partial curve, poor fit]
31 | FC(F)(F)COc1cc(-c2nnc(SCc3ccccc3)n2Cc2ccco2)cc(OCC(F)(F)F)n1 | inactive
32 | OCCCNc1nc(-c2ccc(Cl)cc2)nnc1-c1ccccc1 | inconclusive: 35.5 µM [inhibitor, single point]
33 | Cc1cccc(C)c1NC(=O)CCCN1CC(C)OC(C)C1 (configuration not stated) | inactive
34 | C=CCc1c(C)nc2nc(SCC(=O)Nc3ccc(C)c(C)c3)nn2c1C | inconclusive: 7.94 µM [inhibitor, partial curve]
35 | Cc1cccc(C(C)C)c1NC(=O)CN1C(=O)NC(Cc2ccccc2)C1=O (configuration not stated) | inactive
36 | CC(C)(C)n1nnnc1CN1CCN(C(c2ccccc2)c2ccccc2)CC1 | inconclusive: 22.4 µM [inhibitor, single point]
37 | COc1ccccc1S(=O)(=O)c1ccccc1[N+](=O)[O-] | inconclusive: 10 µM [inhibitor, partial curve]
38 | COc1ccc(CCN2C(=O)c3[nH]nc(-c4ccccc4O)c3C2c2cccc(Cl)c2)cc1 (configuration not stated) | inconclusive: 35.5 µM [inhibitor, single point]
39 | COC1=C(c2ccccc2)C(=O)c2ccccc2C1=O | active: 11.2 µM
40 | O=C(OCC(O)CN1CCCCC1)C12CC3CC(CC(C3)C1)C2 (configuration not stated) | inactive
41 | CC[n+]1c(/C=C2\C=C(C)CC(C)C2)sc2ccccc21 (configuration not stated) | inconclusive: 11.2 µM [inhibitor, single point]
42 | CC(C)(C)c1ccc(C(=O)NNC(=O)c2cccc(Br)c2)cc1 | inconclusive: 17.8 µM [inhibitor, single point]
43 | CNc1ccc(/C=C/C(=O)c2cccc3ccccc23)cc1[N+](=O)[O-] | inactive
44 | Cc1ccc(C23CC4CC(CC(NC(=O)NCCN(C)C)(C4)C2)C3)cc1 | inconclusive: 35.5 µM [inhibitor, single point]
45 | CCOc1ccccc1CNn1nnnc1N | inconclusive: 22.4 µM [inhibitor, single point]
46 | O=C1CN(C(=O)COC(=O)c2ccc([N+](=O)[O-])s2)c2ccccc2N1 | inconclusive: 25.1 µM [inhibitor, single point]

Row | SMILES | Potency
47 | Cc1ccc(NC(=O)CSc2nncn3c2cc2sccc23)cc1F | inconclusive: 31.6 µM [inhibitor, single point]
48 | O=C(CSc1cn(CCNC(=O)c2c(F)cccc2F)c2ccccc12)NCC1CCCO1 (configuration not stated) | inconclusive: 5.62 µM [inhibitor, single point]
49 | CCN(CC)C(=S)Nc1ccc(Cl)c(Cl)c1 | inactive
50 | COc1ccccc1NS(=O)(=O)c1ccc(C)c(C(=O)NC2CCN(Cc3ccccc3)CC2)c1 | inactive
51 | CN(C)c1ccc(/C=C/c2sc3ccccc3[n+]2CCCCI)cc1 | inconclusive: 7.94 µM [inhibitor, partial curve, poor fit]
52 | CC1CCN(S(=O)(=O)c2ccc(N/N=C(/C#N)C(N)=O)cc2)CC1 | inconclusive: 35.5 µM [inhibitor, single point]
53 | COc1ccc(-c2cc(-c3cc(OC)ccc3O)[nH]n2)cc1 | inconclusive: 14.1 µM [inhibitor, single point]
54 | CCC(Oc1ccccc1)C(=O)N1CCN(Cc2cc(=O)n3nc(-c4cccc(C)c4)sc3n2)CC1 (configuration not stated) | inconclusive: 10 µM [inhibitor, partial curve]
55 | COc1cccc(CNCc2ccc(OC)c3ccccc23)c1OC | inconclusive: 20 µM [inhibitor, single point]
56 | CCN(CC(=O)Nc1ccccc1OC)C(=O)CSCC(=O)Nc1ccc(OC)cc1 | inactive
57 | NC(=O)C1CCN(C2=C(Cl)C(=O)c3ccccc3C2=O)CC1 | inconclusive: 10 µM [inhibitor, partial curve, poor fit]
58 | Brc1ccc(C2C3=C(Nc4ncnn42)c2ccccc2OC3c2ccncc2)cc1 (configuration not stated) | inconclusive: 22.4 µM [inhibitor, single point]
59 | CC(C)C(=O)N(Cc1cc2ccccc2[nH]c1=O)C(C)C | inactive
60 | O=[N+]([O-])/C(C=Nc1ccccc1O)=C\Nc1ccccc1O | inconclusive: 14.1 µM [inhibitor, partial curve, poor fit]
61 | O=C(CSc1nc2ccc(Cl)cc2[nH]1)NCCc1ccccc1 | inconclusive: 20 µM [inhibitor, single point]
62 | COc1ccc(C(=O)Cc2ccc(F)cc2)c(OC)c1 | inconclusive: 12.6 µM [inhibitor, partial curve, poor fit]
63 | O=C(Nc1csc(Cc2c(Cl)cccc2Cl)n1)NN1CCOCC1 | inactive
64 | COc1cccc(-c2ccc3c(N)c(C(=O)c4ccc(F)cc4)sc3n2)c1 | inconclusive: 35.5 µM [inhibitor, single point]
65 | CC(C)c1ccc(NC(=O)Cn2ncc3ccccc32)cc1 | inconclusive: 5.62 µM [inhibitor, full curve]
66 | CC(NC(=O)CCCN1C(=O)CCn2nc(-c3cn(C)c4ccccc34)cc21)c1ccccc1 (configuration not stated) | inconclusive: 8.91 µM [inhibitor, partial curve]
67 | O=C(Nc1cccc(S(=O)(=O)N2CCCCCC2)c1)C1CC(=O)N(c2ccc3c(c2)OCCO3)C1 (configuration not stated) | inconclusive: 6.31 µM [inhibitor, single point]
